One assay has as its target His-tagged huPD-L1 (human, UniProt Q9NZQ7 in part). As to the kind of experiment: BLI. For orientation: Biolayer interferometry detects binding as a change in optical thickness at a sensor tip.
A further assay has as its target His tagged TGF-β1 (UniProt P01137 in part). In words: BLI.
The target of assay [1] is human PD-L1 on CHO-K1 cells (human, UniProt Q9NZQ7). As to the kind of experiment: flow cytometry cell binding. (In general: Flow cytometry measures light scatter and fluorescence of single cells or particles in a stream.)
Assay [2] has as its target FITC labeled human PD-L1-Fc protein (human, UniProt Q9NZQ7 in part, FITC labeled). As to the kind of experiment: blocking of PD-L1 binding to PD-1 (flow cytometry, MFI).
The next assay addresses huTGF-β1 (human, UniProt P01137 in part). As to the kind of experiment: ELISA; bridging ELISA: coated huTGF-β1, detected with biotinylated hu PD-L1. In general terms: In an ELISA, binding on a coated surface is turned into a signal by an enzyme label.

In general, Kd refers to the free concentration of one partner at which half of the binding sites on the other are occupied at equilibrium, for simple one-to-one binding. Low readings indicate a tighter complex, high ones a looser complex. For orientation: EC50 means the concentration giving half of the maximal effect. Low readings indicate higher potency in that assay, high ones lower potency in that assay. Usually IC50 stands for the concentration needed to halve the response being measured.

Chain of His tagged TGF-β1 (P01137 279-390): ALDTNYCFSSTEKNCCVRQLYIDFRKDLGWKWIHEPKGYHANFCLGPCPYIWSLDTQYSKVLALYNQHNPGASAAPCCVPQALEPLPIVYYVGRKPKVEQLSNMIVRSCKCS
Chain of huTGF-β1 (P01137 279-390): as above
Chain of His-tagged huPD-L1 (Q9NZQ7 19-238): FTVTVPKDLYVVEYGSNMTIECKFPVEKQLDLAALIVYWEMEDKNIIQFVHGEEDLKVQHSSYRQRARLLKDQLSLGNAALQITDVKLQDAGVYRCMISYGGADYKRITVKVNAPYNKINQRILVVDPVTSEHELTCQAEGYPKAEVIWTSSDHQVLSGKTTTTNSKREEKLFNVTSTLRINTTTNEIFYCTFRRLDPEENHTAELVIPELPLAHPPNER

B1: Bi-PLB-1.2 (bispecific antibody)
heavy: QVQLVQSGAEVKKPGASVKVSCKASGYTFTSYWMHWVRQAPGQGLEWMGMIHPNSGGNNYNEKFKSRVTMTRDTSISTAYMELSRLRSDDTAVYYCARSWYGSSPYYFDYWGQGTLVTVSSASTKGPSVFPLAPSSKSTSGGTAALGCLVKDYFPEPVTVSWNSGALTSGVHTFPAVLQSSGLYSLSSVVTVPSSSLGTQTYICNVNHKPSNTKVDKRV[sequence of human IgG1 Fc omitted]GGGGSGGGGSGGGGSGGGGSGIPPHVQKSVNNDMIVTDNNGAVKFPQLCKFCDVRFSTCDNQKSCMSNCSITSICEKPQEVCVAVWRKNDENITLETVCHDPKLPYHDFILEDAASPKCIMKEKKKPGETFFMCSCSSDECNDNIIFSEEYNTSNPD
light: DIQMTQSPSSLSASVGDRVTISCRASQDIDNYLNWYQQKPGKAPKLLIKYTSRLHSGVPSRFSGSGSGTDFTLTISSLQPEDFATYFCQQGYTLPWTFGGGTKVEIKRTVAAPSVFIFPPSDEQLKSGTASVVCLLNNFYPREAKVQWKVDNALQSGNSQESVTEQDSKDSTYSLSSTLTLSKADYEKHKVYACEVTHQGLSSPVTKSFNRGEC
Turning to B1, the equilibrium dissociation constant (Kd) in the assay with His-tagged huPD-L1 was determined as 0.83 nM; with His tagged TGF-β1, 0.28 nM. For the same molecule, the EC50 in assay [1] was determined as 1.6 nM; in the assay with huTGF-β1, 10.3 nM. Moreover, the IC50 in assay [2] stood at 1.23 nM.

(Values after patent US20200231665A1 (published 2020).)
